# Laboratory results published in PubChem BioAssay AID1030 (National Center for Advancing Translational Sciences (NCATS), 2008).
# In all, about 220,000 compounds went through this assay and about 16,000 (7.3%) were called active. The inconclusive results got no clear call from the source; some entries with a clear call stand among them for comparison. Calls come from the whole dose curve; as a rule, active = well fitted inhibition curve with a large enough effect (not every such curve was filed as active); inconclusive = small, poorly fitted or top-dose-only effect, or another doubt; inactive = no such curve, though single readings can be large or run the other way. Potencies of inconclusive entries are left out as doubtful fits.
# Biological target: Aldehyde dehydrogenase 1A1 (Homo sapiens) (UniProt P00352)
# Experiment: qHTS Assay for Inhibitors of Aldehyde Dehydrogenase 1 (ALDH1A1);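 for activity, negative = inhibition: plate controls were no enzyme wells and a reference inhibitor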
# Details: Purified ALDH1A1, NADH fluorescence, propionaldehyde substrate; series mostly up to 75.3 µM
# Potency is the fitted concentration of half-maximal effect; tags give direction and shape of the fitted curve.
# Chain of UniProt P00352 (P00352 whole entry, looked up): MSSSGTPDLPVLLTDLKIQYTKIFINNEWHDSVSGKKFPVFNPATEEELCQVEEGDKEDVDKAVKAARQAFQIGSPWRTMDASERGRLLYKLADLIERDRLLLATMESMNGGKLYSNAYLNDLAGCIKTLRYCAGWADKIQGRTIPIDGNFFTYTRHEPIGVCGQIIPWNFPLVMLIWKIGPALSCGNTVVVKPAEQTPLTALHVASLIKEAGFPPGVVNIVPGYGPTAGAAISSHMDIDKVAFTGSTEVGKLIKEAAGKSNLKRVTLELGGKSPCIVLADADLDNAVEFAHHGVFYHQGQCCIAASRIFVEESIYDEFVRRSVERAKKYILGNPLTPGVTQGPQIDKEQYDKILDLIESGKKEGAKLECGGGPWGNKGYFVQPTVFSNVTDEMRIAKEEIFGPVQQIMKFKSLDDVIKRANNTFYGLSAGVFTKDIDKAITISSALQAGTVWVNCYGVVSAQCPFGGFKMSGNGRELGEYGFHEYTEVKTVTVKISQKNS
SMILES,Potency,"activity, negative = inhibition"
COc1cc(/C=N/NC(=O)c2ccc(CSc3nncn3C)cc2)cc(OC)c1O,"inconclusive [inhibitor, single point]",–
CCCCNc1c(NC(C)=O)c(=O)oc2ccccc12,inactive,–
Brc1ccc(-c2csc(N/N=C/c3ccco3)n2)cc1,inactive,–
CCC(C)n1c(NC(=O)c2ccccc2)c(C#N)c2nc3ccccc3nc21 (stereo not given),"inconclusive [inhibitor, partial curve]",–
Cn1cc(C2=C(c3cn(CCCSC(=N)N)c4ccccc34)C(=O)NC2=O)c2ccccc21,inactive,–
CC1CC(C)CN(CCOc2ccc(Br)cc2)C1 (stereo not given),inactive,–
CCOCC(=O)Nc1ccc([N+](=O)[O-])cc1OC,"inconclusive [inhibitor, single point]",–
COC(=O)c1cn(NC(=O)Cc2ccc(Cl)c(Cl)c2)c(=O)c2ccccc12,"inconclusive [inhibitor, single point]",–
CCOc1ccc(NC(=O)CSc2nnc(-c3ccccn3)n2N)cc1,active: 11.2 µM,–
CC(C)(C)OC(=O)[C@H](C1N[C@@H](C(=O)O)C(C)(C)S1)N1C(=O)c2ccccc2C1=O (stereo not given in full),–,inactive: 3.36% [at 13.5 µM]
COc1cc(C2CC(c3cccnc3)=NN2c2ccc(F)cc2)cc(OC)c1OC (stereo not given),"inconclusive [inhibitor, partial curve]",–
Cc1nc(N2CCC3(CC2)OCCO3)c2nnn(Cc3ccccc3F)c2n1,"inconclusive [inhibitor, partial curve]",–
O=C(CN1CCCC1)NCC12CC3CC(CC(C3)C1)C2,"inconclusive [inhibitor, full curve]",–
COc1ccccc1C(=O)C1CCCN(C(=O)CCc2ccccn2)C1 (stereo not given),active: 17.8 µM,–
O=c1[nH]c2ccccc2nc1/C=C/c1ccccc1,"inconclusive [inhibitor, single point]",–
COC(=O)C1=C(C(=O)OC)[C@@H]2Nc3ccccc3[C@@]23C[C@@H](C(=O)OC)N(C(=O)c2ccco2)C3=N1,–,inactive: -8.05% [at 13.5 µM]
O=C(CN1CCC(Cc2ccccc2)CC1)N1CCc2ccccc2C1,inactive,–
Cc1cc(C)n(C(=O)Cn2nc([N+](=O)[O-])cc2C)n1,inactive,–
NNC(=O)/C=C/c1ccc(Cl)cc1Cl,active: 12.6 µM,–
O=C(NC12CC3CC(CC(C3)C1)C2)N1CCC(O)(c2ccc3c(c2)OCO3)CC1,"inconclusive [inhibitor, single point]",–
COCCN(CCOC)Cc1c(C)[nH]c2c(C)c(C)ccc2c1=O,"inconclusive [inhibitor, single point]",–
O=C(NC(=S)NC1CCCCCC1)c1cncc(Br)c1,"inconclusive [inhibitor, partial curve]",–
Cc1ccc(N(Cc2cc3ccccc3[nH]c2=O)S(=O)(=O)c2ccccc2)cc1,inactive,–
COc1cc(N=C2C(=O)N3c4c(cccc42)C(C)=CC3(C)C)cc(OC)c1,active: 0.794 µM,–
COc1cc(CNc2ccc(CNc3ncn[nH]3)cc2)ccc1OCc1ccccc1,inactive,–

SMILES,Potency,"activity, negative = inhibition"
COc1cc(CC(=O)NNC(=O)c2cc(C)oc2C)cc(OC)c1OC,inactive,–
COc1ccc(N2CCN(C(=O)CN(C3CCCCC3)S(C)(=O)=O)CC2)cc1,inactive,–
CSc1ccc(NC(=O)CC(C)=O)cc1,inactive,–
N#Cc1ccccc1NC(=O)c1ccccc1OCC(=O)NCc1ccco1,"inconclusive [inhibitor, partial curve]",–
Cc1cc(C)n2nc(C(=O)N3CCN(c4ccc([N+](=O)[O-])cc4)CC3)nc2n1,"inconclusive [inhibitor, single point]",–
CCOc1cc(C(c2c(C)[nH][nH]c2=O)c2c(C)[nH][nH]c2=O)ccc1O,"inconclusive [inhibitor, single point]",–
COc1cccc(C2C(C#N)=C(N)OC(C(C)(C)C)=C2C#N)c1 (stereo not given),inactive,–
Cc1cc(C)cc(NC(=S)NCc2ccncc2)c1,inactive,–
CC(C)=Cc1oc2ccc([N+](=O)[O-])cc2c1N1CCOCC1,inactive,–
COc1ccc(C(=O)Oc2ccc(/C=N/O)cc2)cc1,inactive,–
COCCn1c(=O)c(-c2ccc(Cl)cc2)nc2cnc(N(C)C)nc21,"inconclusive [inhibitor, full curve]",–
CO[C@@]12C[C@@H](COC(=O)c3cncc(Br)c3)CN(C)[C@H]1Cc1cn(C)c3cccc2c13,inactive,–
Cc1ccc(NC(=O)CCCSc2ccccc2)cc1S(=O)(=O)N1CCOCC1,inactive,–
C[N+]1(C)C2CCC1CC(OC(=O)C(O)c1ccccc1)C2 (stereo not given),inactive,–
COc1cccc(CN2CCNC(=O)C2CC(=O)NCc2cn3ccccc3n2)c1OC (stereo not given),"inconclusive [inhibitor, single point]",–
Cc1cc2cc3c(cc2nc1SCC(=O)O)CCC3,inactive,–
O=C(O)Cc1ccc(C(=O)c2cccs2)s1,active: 10 µM,–
O=C(NCc1cccs1)c1ccccc1C(=O)NCc1cccs1,inactive,–
Cc1ccc(NC(=O)CSc2nnc(NC(=O)CN3CCOCC3)s2)cc1,"inconclusive [inhibitor, single point]",–
O=C(/C=C/c1cccc([N+](=O)[O-])c1)NCCSCc1ccc(Cl)cc1Cl,"inconclusive [inhibitor, single point]",–
COc1ccc(C(C)=O)cc1CSc1nc2ccccc2o1,"inconclusive [inhibitor, single point]",–
CC(=O)c1cccc(OCC(=O)N2CCN(c3ccc(C(F)(F)F)cn3)CC2)c1,inactive,–
CCOc1cc(C=O)ccc1OCc1cc(=O)n2cc(C)ccc2n1,"inconclusive [inhibitor, single point]",–
O=C(Cc1ccc([N+](=O)[O-])cc1)N1N=C(c2ccncc2)CC1(O)C(F)(F)F (stereo not given),"inconclusive [inhibitor, full curve, poor fit]",–
Cn1c(=O)c2c(nc(CN3CCC(C(N)=O)CC3)n2Cc2c(F)cccc2Cl)n(C)c1=O,"inconclusive [inhibitor, single point]",–

SMILES,Potency,"activity, negative = inhibition"
Cc1ccc(-c2cc(-c3n[nH]c(=S)o3)c3ccccc3n2)cc1,"inconclusive [inhibitor, full curve]",–
COc1cccc(-c2ccc3ncnc(NCc4cccs4)c3c2)c1,"inconclusive [inhibitor, single point]",–
COc1ccc(NC(=S)N(CCN2CCOCC2)Cc2cc3cc4c(cc3[nH]c2=O)OCO4)cc1,"inconclusive [inhibitor, single point]",–
Cc1cc(=O)oc2cc(Nc3ccccc3)ccc12,"inconclusive [inhibitor, single point]",–
COC(=O)c1ccc2c(c1)NC(=O)C(N1CCCC1)S2 (stereo not given),inactive,–
O=C1/C(=C/c2cccnc2)SC(=S)N1CC1CCCO1 (stereo not given),active: 5.01 µM,–
O=C(Cc1nc2ccccc2[nH]1)c1ccc([N+](=O)[O-])cc1,active: 17.8 µM,–
O=C(CSc1nnc(-c2ccncc2)o1)Nc1ccccc1Cl,inactive,–
CCc1nn(CC(=O)Nc2ccc(Br)c(C)c2)c(=N)s1,active: 11.2 µM,–
O=C(c1ccccc1)c1nccn1-c1ccc(Cl)nn1,"inconclusive [inhibitor, single point]",–
CCC1CCCCN1C(=O)C1CC(c2cc(Cl)c(OC)cc2OC)=NO1 (stereo not given),"inconclusive [inhibitor, single point]",–
CCCc1cc(=O)[nH]c(SCCCCN2C(=O)c3ccccc3C2=O)n1,"inconclusive [inhibitor, single point]",–
COC(=O)C1=C(C)NC(=O)NC1c1cc(Cl)ccc1OC (stereo not given),inactive,–
COc1ccc(COC(=O)Nc2c(SC)nsc2SC)cc1,"inconclusive [inhibitor, single point]",–
CCCOc1cccc(C2/C(=C(/O)c3ccccc3)C(=O)C(=O)N2CCN(C)C)c1 (stereo not given),"inconclusive [inhibitor, single point]",–
CC(C)(C)NC(=O)c1cc(NC(=O)c2ccco2)cc(NC(=O)c2ccco2)c1,inactive,–
Cc1c(C(=O)N(C)C)sc2nc(-c3ccccn3)[nH]c(=O)c12,"inconclusive [inhibitor, single point]",–
CC(/C=N/NC(=O)c1ccncc1)=C\c1ccc(C(C)C)cc1,"inconclusive [inhibitor, full curve]",–
CCOc1ccc2nc(NC(=O)CN3CCN(C)CC3)sc2c1,inactive,–
COc1ccc(C/C(C)=N/NC(=O)C2COc3ccccc3O2)cc1 (stereo not given),"inconclusive [inhibitor, partial curve]",–
CC(=O)Nc1ccc(NC2=C(Cl)C(=O)c3ccccc3C2=O)cc1,"inconclusive [inhibitor, partial curve]",–
COc1cccc(/C=N/n2c(N)c(S(=O)(=O)c3cccs3)c3nc4ccccc4nc32)c1OC,"inconclusive [inhibitor, partial curve]",–
C=C(C)COc1ccc2c(C)c(C)c(=O)oc2c1OCC(=C)C,"inconclusive [inhibitor, single point]",–
Cc1ccc(NP(=O)(c2ccc(N(C)C)cc2NC(=O)c2cccs2)N2CCOCC2)cc1Cl (stereo not given),"inconclusive [inhibitor, single point]",–
CN1CCN(c2ncc3nc(-c4cccs4)c(=O)n(Cc4cccs4)c3n2)CC1,"inconclusive [inhibitor, partial curve]",–
